B1: CPEB3 Ribozyme (parent)
chain: UAACAGGGGGCCACAGCAGAAGCGUUCACGUCGCAGCCCCUGUCAGAUUCUGGUGAAUCUGCGAAUUCUGCUGUAUAUCUC

The results in this text go back to the RNAGym collection of RNA variant scans (doi:10.1093/nar/gkz1192).

The source gives no read counts; variants with many changes may rest on few reads.

In this series the parent is B1. The experiment in a line: self-cleavage, relative activity (ratio to wild type); higher = more cleavage; in vitro, sequencing. The essentials: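 Libraries of CPEB3 self-cleaving ribozyme mutants came from rounds of error-prone PCR and carried barcodes, which DNA sequencing matched to variants. In vitro transcription used T7 RNA polymerase at 37°C for 5 hours, with a further 15 min in DNase I before EDTA stopped the reaction; the ribozymes cleaved during both steps. The RNA was reverse transcribed with template switching and sequenced on Illumina. Relative activity is the cleaved/total read fraction of a variant divided by that of the unmutated ribozyme, averaged over three batches with at least 5 reads.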
As to A3G G10A C11A U26C A45G U72C U80C, the self-cleavage stood at 0.06.

With A3G U26C G46U U49C U72A U80C, the self-cleavage is 0.08. As to A3G C17U A28G U58C U78C, the self-cleavage stood at 0.09. As for A3G C12U A15G U49C U69C, the self-cleavage stood at 0.31.

With A3U A45G G53A, the self-cleavage was determined as 1.13. Next, A3G U26A G46U A77G: 0.37; A3G G22C G52C: 0.34; A3G U72C U74C: 1.19. Next, A3G U49C U54A: 0.43; A3G C12A C23U C59A U76C U80A: 0.07; A3G G7A G9A U54C: 0.16. Next, A3G U51A G52C: 1.12. On to A3G C12A A45U U60G C81A, for which the self-cleavage came to 0.88. Next, A3U A56G A64U: 0.3; A3G C11U C14U U60A U67C: 0.24. Next, A3U A13G A18U A20G A57G A64G: 0.06.

Regarding A3G U58C G70A U80C, the self-cleavage came out at 0.42. Next, A3G G10U A20G U25C U80A: 0.08; A3G G7C A13G C14A A28C U72A: 0.06; A3U A15G A45C U80C: 0.38. For A3G G9A U67C C71A C79U, the self-cleavage is 0.03.

For the variant A3G U25G A65G U72C, the self-cleavage is 0.5. Next, A3G A57G U72A: 1.02; A3G A47G A64U: 0.48; A3U A5G A45U U54A A65G: 0.1. In the case of A3G U31A A45G A64G, the self-cleavage came out at 0.38. Next, A3U C17A G19U A56G A77G U78A: 0.35.

With A3G G24A U41A U67A, the self-cleavage worked out at 0.12.

For A3G U26C U41G G70A U80C, the self-cleavage worked out at 0.29. Next, A3G G7A A21G U25C U26C U78C: 0.08; A3G C12A C17U A28C C38G U41A: 0.1. Next, A3G G33A C71A: 0.2. In the case of A3G U25C U41C U74C U78C, the self-cleavage amounted to 0.76. A3G G10A U49A U72C: the self-cleavage worked out at 0.08.

As to A3G U48C U51A A56G U67A G73A U74C, the self-cleavage was 0.09.

Consider A3G A57U A64G U78A, for which the self-cleavage was 0.47.

In the case of A3G U25G A57G U72A U76A, the self-cleavage worked out at 0.06. On to A3G G8A U41A A56G, for which the self-cleavage is 0.21. Next, A3G C71U G73A: 1.36. Next, A3G U26A U41A U51A U67C: 0.14; A3G U60C A64G U76C: 0.3.

A3U A13U A15U U26C: the self-cleavage came out at 0.61.

Turning to A3G G7A U25G U54A U80C, the self-cleavage worked out at 0.06.

As for A3G C38A A77G, the self-cleavage was found to be 0.4. Next, A3G U26G U51A U58G: 0.07; A3U A20U A47G G63A U72C: 0.44.

Take A3U C11G U25C: the self-cleavage turned out to be 0.07. Next, A3U A15G C39U U43A U69C: 0.23. Next, A3G G24C A28G U31C U49C: 0.53; A3G A57U A75U U80A: 1.16; A3G U25G U31C G36U C62U: 0.28. A3G U26A A28G: the self-cleavage turned out to be 0.42.

As to A3G G19A U26C A65G U69C U72A, the self-cleavage stood at 0.06. Regarding A3G C12A U48C U49C U54A, the self-cleavage was determined as 0.31. Next, A3G U25C U48C U51A: 0.04; A3U A28G A45C U72C: 0.22. Next, A3G G6U A57U: 0.35; A3G G61C U69C U74C A75G: 0.25.

As to A3G G30A U48A, the self-cleavage came out at 0.51. With A3U C11U U41C, the self-cleavage turned out to be 0.53. Next, A3G C29U C34G U51C U69C: 0.07; A3G U25A C40A U51C U69C: 0.1. Next, A3G C23A A56G: 0.16; A3G C12G C37G U43A A47G U51C: 0.36; A3G C14A A64U U78C: 0.54. On to A3G A56G U58C U69C, for which the self-cleavage was 0.21. As to A3G U31C G33A U60C U74G, the self-cleavage is 0.07. Next, A3U A28C A64C: 0.09; A3U A21G A35G U69A U72C: 0.6. Take A3G U41C U49C U67C: the self-cleavage amounted to 0.17.

As for A3G C11U U41C U43A, the self-cleavage amounted to 0.4. Next, A3G G8U A21G U41A A75U U80C: 0.06; A3G U26C G52U A56G G63U: 0.76; A3U A20G A35U: 0.33. Consider A3G U25C U31C U60C C62U, for which the self-cleavage is 0.06. For the variant A3G U41C U51G, the self-cleavage turned out to be 0.99. In the case of A3G U43C U54A A57U U58A, the self-cleavage worked out at 0.15. Next, A3G U31A U43G A45G: 0.49; A3G C38U U72A: 0.5.

On to A3G C4U G52A C79U C81G, for which the self-cleavage stood at 1.25. Next, A3G G9A C23U A65G: 0.19; A3G U54C U60C: 0.48; A3G U26C A57U U58C: 0.14. Next, A3U A18U A28U A65G U78A: 0.28; A3G U43C U48C A64U C68A: 0.04. Next, A3G G9A C14U U26C: 0.09; A3G C32A C39A A56G U69C U72C A77G: 0; A3G A64U U76C: 0.32.

Take A3G C11G C14G A57G A65G U66C U69A: the self-cleavage amounted to 0.1. As to A3G G9A A15U G70U, the self-cleavage came out at 0.08. Next, A3U A5G C11G G19C U25C U43G: 0.08. Consider A3U A15U U54C A64U C71U U72C, for which the self-cleavage came to 0.13. Next, A3U A13C C27U C81A: 0.49; A3G G16C A75U U78C: 0.65.

A3G C23U U48C U49A: the self-cleavage turned out to be 0.09.

For A3U A20G A64G, the self-cleavage came to 0.52. For A3G C29U U54C A56U, the self-cleavage was 0.33. Next, A3G U31C U43C G46A: 0.4; A3U A35G G42A A45G G52A: 0.52; A3G C12A U80C: 0.9. As for A3U A18G U51C U69C, the self-cleavage came out at 0.75.

As for A3G A45U U67G, the self-cleavage worked out at 0.26. Next, A3G G10A A35G U43G A77G U78C: 0.11; A3G U48C G63U U74A: 0.95. Take A3G A45U U60C U67A: the self-cleavage was 0.13. Next, A3G U25C C29G A35G G73U U78A: 0.64; A3G G8U G36A U60A A64U: 0.05. For the variant A3G A45G U69C U74C, the self-cleavage was 0.28. Next, A3G U60C A77U: 0.74. Next, A3G C39U U60C: 0.22. Next, A3G U25C G30U U67C C68G: 0.08; A3U C11U A18G U31A: 0.11. Consider A3U A18G A21G A28G, for which the self-cleavage was 0.07.

A3G U31C U51A: the self-cleavage stood at 0.86. Next, A3G A57G U58C: 0.45. A3G C44U U58C: the self-cleavage was determined as 0.25. Next, A3U A5G C40U U58A U60A: 0.34.

For the variant A3G C11U G73C A77U, the self-cleavage was 1.05. Take A3G G9U C40U U54A A56G U69C: the self-cleavage was found to be 0.21.

Take A3G C12G U49C U67C: the self-cleavage came to 0.08. Next, A3U C11A A56G: 0.14; A3G U31A A35U A45G U60G: 0.16; A3G U67C U76C: 0.27. Next, A3U A21G C32A A45C G70A: 0.07. Turning to A3G G6A U31A C32U U67C A75G C81G, the self-cleavage was determined as 0.05. Next, A3G U41A A45G U60C A75C: 0.44; A3U A18U A20G A45G A56C: 0.24.

Consider A3G A57G U67A U78C, for which the self-cleavage was found to be 0.34. With A3U C23U U25C A56U G61A U74A A77U, the self-cleavage stood at 0.04.

Turning to A3G C23U U43C U60A, the self-cleavage turned out to be 0.06. Take A3G G24A U51C: the self-cleavage was 0.12.

Take A3G G7C U31C A35U U76A A77U: the self-cleavage amounted to 0.07. Next, A3G U41A U49C U67A: 0.1; A3G C40U A56U U72A: 0.16; A3G U26C U51A U60C: 0.33. Take A3G G8A U69G A77G: the self-cleavage came out at 0.1. Regarding A3G C11G C12U G36A U78C, the self-cleavage turned out to be 0.1. Next, A3U A15G U60A: 0.37. Next, A3G U54A A64G U66A: 0.29; A3G U51A U67A: 0.55. Regarding A3G U26C A28G A45G U60C U78A, the self-cleavage amounted to 0.79. On to A3U A18C G33A A64G, for which the self-cleavage came to 0.07. Regarding A3G C12U U49C U54A A64C U72C U78C, the self-cleavage was 0.3. Consider A3U C12U U25C U58A A64G A75G, for which the self-cleavage was determined as 0.06. Next, A3G G36A A47G: 0.19. Next, A3G G19C U48C U54A U69C: 0.23; A3G G16C U69A A75U U78C: 0.4. Next, A3U C17U A28G A45U U66C: 0.15; A3G C62U G70U: 0.25.

A3U A13U C32U A64U U80C: the self-cleavage was 0.11. Next, A3G U41A A64U U74G U76A: 0.16.

As to A3G U31C U51G U74C, the self-cleavage is 1.04. Next, A3G A35U U74C: 0.98; A3U C12A U51C A56U A65U: 0.26. As to A3U A18C U69G U74C, the self-cleavage is 1.35.

With A3U A13U A18C A28G U58C, the self-cleavage was determined as 0.25. Regarding A3U A13G A21G A35G A45G C62U, the self-cleavage came out at 0.3. Next, A3G C11A U41C U54C A64G U78C U80C: 0.06. Next, A3G G8C A28U U78A: 0.08; A3U A21U U41A U54C A57U A64G U69C: 0.1; A3G U51C G55A: 0.61. Turning to A3G G7A A21G A35U, the self-cleavage turned out to be 0.28.

Turning to A3G G10A C32U U78A, the self-cleavage turned out to be 0.18. Next, A3U A15U A35U A56U U60C A64U C81U: 0.09; A3G U26A G30C U49C: 0.3. Consider A3G G19U U72C, for which the self-cleavage stood at 0.43. Next, A3G G8C G22A C50G A57G: 0.05.
